Measurements from the supplement of paper PMC6206098.
± gives the uncertainty stated by the source. The sequences are guide strands of siRNAs; only the seed at positions 2 to 7 varies.

How the values were obtained:
3LL = test: cell viability relative to siNT1 control; higher = less toxic; details: concentration: 10 nM; 96 h; Mus musculus;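 also: Luminescence-based viability of cells reverse transfected in 384-well plates with lipid-complexed siRNAs built on a non-toxic 19mer backbone whose passenger strand carries 2′-O-methyl groups at positions 1 and 2, triplicates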
H460 = test: cell viability relative to lipid-only control; HeyA8 human ovarian and H460 human lung cancer; M565 mouse liver and 3LL mouse lung cancer; siNT1 is a non-toxic control siRNA; higher = less toxic; details: concentration: 10 nM; 96 h; Homo sapiens
HeyA8 = test: as above; details: concentration: 10 nM; 96 h; Homo sapiens
M565 = test: as above; details: concentration: 10 nM; 96 h; Mus musculus
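For cell viability relative to lipid-only control in this document: reverse lipid transfection in 384-well plates, in triplicate, of duplexes on a non-toxic 19mer backbone with passenger strand 2′-O-methylated at positions 1 and 2, luminescence viability read-out.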

Row | Sequence | cell viability (3LL) | cell viability (H460) | cell viability (HeyA8) | cell viability (M565)
1 | UGCGAUUACAUGUAAACCAAA | 94.2 ± 14% | 47.4 ± 5.4% | 61.6 ± 1.5% | 87.9 ± 1.1%
2 | UGCGCAAACAUGUAAACCAAA | 89.4 ± 13% | 86.8 ± 21% | 84 ± 1.8% | 95.5 ± 4.1%
3 | UGCGCACACAUGUAAACCAAA | 55.8 ± 2.5% | 59.8 ± 4.3% | 58.6 ± 6.4% | 54.6 ± 1.6%
4 | UGCGCAGACAUGUAAACCAAA | 72.9 ± 7.3% | 90.7 ± 16% | 51.6 ± 3.4% | 76.2 ± 1.9%
5 | UGCGCAUACAUGUAAACCAAA | 78.1 ± 12% | 87.5 ± 26% | 74.9 ± 6.7% | 49.8 ± 0.93%
6 | UGCGCCAACAUGUAAACCAAA | 61.3 ± 9.2% | 79 ± 21% | 83.6 ± 5.8% | 67.7 ± 4.5%
7 | UGCGCCCACAUGUAAACCAAA | 38.3 ± 6.1% | 45.8 ± 3.8% | 24 ± 1.7% | 34.7 ± 3.9%
8 | UGCGCCGACAUGUAAACCAAA | 81.6 ± 8.1% | 51.6 ± 4.8% | 57.2 ± 2.8% | 67.3 ± 6.2%
9 | UGCGCCUACAUGUAAACCAAA | 58.1 ± 12% | 36.9 ± 1.7% | 46.3 ± 2.7% | 38.4 ± 8.4%
10 | UGCGCGAACAUGUAAACCAAA | 95.2 ± 16% | 88.8 ± 6.9% | 67.3 ± 6.9% | 66.1 ± 2.4%
11 | UGCGCGCACAUGUAAACCAAA | 68.5 ± 13% | 32.8 ± 0.7% | 11 ± 4% | 58.9 ± 10%
12 | UGCGCGGACAUGUAAACCAAA | 54.7 ± 13% | 40.7 ± 2.8% | 44.7 ± 4.3% | 47.9 ± 4.3%
13 | UGCGCGUACAUGUAAACCAAA | 94.5 ± 9.6% | 62.2 ± 2.3% | 49.9 ± 4.8% | 21.8 ± 12%
14 | UGCGCUAACAUGUAAACCAAA | 96 ± 15% | 97.5 ± 12% | 87.2 ± 5.2% | 72.3 ± 4%
15 | UGCGCUCACAUGUAAACCAAA | 32.5 ± 9.9% | 22.8 ± 6.6% | 10.5 ± 0.95% | 62.3 ± 6.8%
16 | UGCGCUGACAUGUAAACCAAA | 81.7 ± 3.1% | 64.9 ± 4% | 52.6 ± 8.4% | 56.9 ± 9.2%
17 | UGCGCUUACAUGUAAACCAAA | 79.9 ± 8.9% | 28.1 ± 2.1% | 31.3 ± 3.6% | 55 ± 6.1%
18 | UGCGGAAACAUGUAAACCAAA | 87.1 ± 7.4% | 54.6 ± 3.4% | 56.6 ± 7% | 52.3 ± 2.1%
19 | UGCGGACACAUGUAAACCAAA | 28.9 ± 5% | 22.4 ± 0.49% | 18.1 ± 1.3% | 13.2 ± 2.9%
20 | UGCGGAGACAUGUAAACCAAA | 82.8 ± 7.4% | 39.1 ± 1.9% | 23.5 ± 0.41% | 29.2 ± 2.9%

Row | Sequence | cell viability (3LL) | cell viability (H460) | cell viability (HeyA8) | cell viability (M565)
21 | UGCGGAUACAUGUAAACCAAA | 35.9 ± 3.9% | 28.6 ± 2.1% | 17.3 ± 3% | 26.1 ± 5.4%
22 | UGCGGCAACAUGUAAACCAAA | 34.7 ± 5.2% | 24.2 ± 1.6% | 10.9 ± 2.3% | 16.9 ± 5.3%
23 | UGCGGCCACAUGUAAACCAAA | 17.8 ± 4.3% | 27.7 ± 2.5% | 24.9 ± 1.1% | 18.6 ± 8.7%
24 | UGCGGCGACAUGUAAACCAAA | 11.6 ± 3.6% | 17.1 ± 1.6% | 4.4 ± 0.23% | 8.71 ± 2.1%
25 | UGCGGCUACAUGUAAACCAAA | 29 ± 7.6% | 20.8 ± 1.6% | 9.36 ± 2.5% | 9.86 ± 5.8%
26 | UGCGGGAACAUGUAAACCAAA | 67.4 ± 8% | 23.3 ± 2.3% | 9.84 ± 1.4% | 40 ± 4.5%
27 | UGCGGGCACAUGUAAACCAAA | 25 ± 8% | 14 ± 1.6% | 2.74 ± 0.45% | 26.3 ± 1.2%
28 | UGCGGGGACAUGUAAACCAAA | 13.3 ± 4.2% | 17.3 ± 2.2% | 3.07 ± 0.45% | 22 ± 5.3%
29 | UGCGGGUACAUGUAAACCAAA | 47.9 ± 8.5% | 21.8 ± 0.91% | 3.18 ± 0.085% | 21.5 ± 1.1%
30 | UGCGGUAACAUGUAAACCAAA | 80.6 ± 7.8% | 47.8 ± 2.8% | 16.8 ± 0.69% | 47.1 ± 6.4%
31 | UGCGGUCACAUGUAAACCAAA | 27.6 ± 5.9% | 15 ± 2.5% | 12.4 ± 1.5% | 11.2 ± 3.1%
32 | UGCGGUGACAUGUAAACCAAA | 73.8 ± 13% | 23.9 ± 1.1% | 15.9 ± 1.8% | 33.8 ± 7.8%
33 | UGCGGUUACAUGUAAACCAAA | 74.3 ± 5.1% | 38.8 ± 2.4% | 5.08 ± 0.89% | 20.6 ± 7.1%
34 | UGCGUAAACAUGUAAACCAAA | 89.2 ± 10% | 72.4 ± 5.3% | 86.2 ± 7.2% | 87.69 ± 0.7%
35 | UGCGUACACAUGUAAACCAAA | 92.3 ± 13% | 72.1 ± 4.6% | 75.7 ± 5.4% | 78.9 ± 2.9%
36 | UGCGUAGACAUGUAAACCAAA | 85.8 ± 9.3% | 76.8 ± 7.6% | 88.4 ± 9.3% | 60.38 ± 0.42%
37 | UGCGUAUACAUGUAAACCAAA | 90 ± 9.3% | 76 ± 11% | 74.4 ± 8.2% | 88.1 ± 3.7%
38 | UGCGUCAACAUGUAAACCAAA | 72.5 ± 6.7% | 64.2 ± 1.9% | 71.9 ± 1.1% | 52.7 ± 1.4%
39 | UGCGUCCACAUGUAAACCAAA | 9.95 ± 1.1% | 55.9 ± 5% | 38.7 ± 4.6% | 27.1 ± 3.9%
40 | UGCGUCGACAUGUAAACCAAA | 66.3 ± 14% | 66 ± 4.6% | 72.4 ± 6.5% | 47.3 ± 0.77%

Row | Sequence | cell viability (3LL) | cell viability (H460) | cell viability (HeyA8) | cell viability (M565)
41 | UGCGUCUACAUGUAAACCAAA | 54.2 ± 5.1% | 55.9 ± 2.8% | 50.2 ± 2.8% | 16 ± 4.6%
42 | UGCGUGAACAUGUAAACCAAA | 94.6 ± 11% | 80 ± 5.2% | 78.8 ± 2.7% | 55.5 ± 2.2%
43 | UGCGUGCACAUGUAAACCAAA | 30.4 ± 3.5% | 40.6 ± 0.96% | 6.13 ± 0.44% | 23.7 ± 1.5%
44 | UGCGUGGACAUGUAAACCAAA | 64.9 ± 6.5% | 49.2 ± 4.6% | 50 ± 1.4% | 29.1 ± 2.9%
45 | UGCGUGUACAUGUAAACCAAA | 73.8 ± 12% | 67.3 ± 4.4% | 46.3 ± 4.9% | 21 ± 2.9%
46 | UGCGUUAACAUGUAAACCAAA | 97.2 ± 13% | 89 ± 11% | 95.1 ± 12% | 76.83 ± 0.6%
47 | UGCGUUCACAUGUAAACCAAA | 45.5 ± 3.4% | 17.1 ± 1.4% | 15.5 ± 0.17% | 44.5 ± 1.2%
48 | UGCGUUGACAUGUAAACCAAA | 90.3 ± 16% | 83 ± 7.7% | 63.7 ± 15% | 88.07 ± 0.81%
49 | UGCGUUUACAUGUAAACCAAA | 80.7 ± 8.8% | 61.4 ± 1.5% | 67.3 ± 4.7% | 60.9 ± 3.8%
50 | UGCUAAAACAUGUAAACCAAA | 88.3 ± 12% | 70 ± 7.7% | 70.9 ± 8.6% | 80 ± 1.6%
51 | UGCUAACACAUGUAAACCAAA | 1.75 ± 0.22% | 4.04 ± 0.14% | 2.66 ± 0.15% | 10.9 ± 2.3%
52 | UGCUAAGACAUGUAAACCAAA | 87.1 ± 15% | 72.6 ± 16% | 76.2 ± 5.9% | 83.7 ± 6.7%
53 | UGCUAAUACAUGUAAACCAAA | 27.7 ± 4.8% | 12.3 ± 2.1% | 4.04 ± 0.18% | 57.1 ± 3%
54 | UGCUACAACAUGUAAACCAAA | 81 ± 12% | 63.2 ± 8.4% | 49.3 ± 2.4% | 59.2 ± 2.4%
55 | UGCUACCACAUGUAAACCAAA | 55.4 ± 4.8% | 55 ± 4.5% | 20.9 ± 0.38% | 5.05 ± 3.6%
56 | UGCUACGACAUGUAAACCAAA | 85.7 ± 14% | 62.8 ± 4.6% | 52.4 ± 4.6% | 85.3 ± 5.7%
57 | UGCUACUACAUGUAAACCAAA | 28.3 ± 6.9% | 12.6 ± 0.96% | 17.4 ± 0.61% | 33.7 ± 2%
58 | UGCUAGAACAUGUAAACCAAA | 89.4 ± 6.4% | 66.2 ± 13% | 70.7 ± 6.9% | 87.6 ± 2.5%
59 | UGCUAGCACAUGUAAACCAAA | 7.6 ± 2.8% | 8.26 ± 0.96% | 4.66 ± 0.75% | 10.6 ± 7.8%
60 | UGCUAGGACAUGUAAACCAAA | 58.2 ± 12% | 44.1 ± 2.2% | 59.9 ± 4.5% | 26.9 ± 9%
